# Test results published in PubChem BioAssay AID463173 (ICCB-Longwood Screening Facility, Harvard Medical School, 2010).
# Hit rate of the full screen: of about 52,000 compounds, about 1,700 (3.3%) were called active. Rule as the data show it: active = survival mostly below about 52% (no sharp cut-off); inactive = mostly above about 56%. The list shows a part of the results.
# Tested on: Wild type
# Assay: S. aureus survival, RN4220 and DeltatarO strains – OD600, teichoic acid synthesis inhibitors, primary screen (AID 463173)
# Conditions: S. aureus RN4220 wild type/DeltatarO growth, OD600, 18 h, active compounds read low, screened at 18.75 µg/mL (by protocol)
row,SMILES,survival
1,COC(=O)c1cc(S(=O)(=O)N2CCN(c3cccc(C)c3)C(C)C2)c[nH]1 (stereo unspecified),inactive: 98%
2,Cc1ccc2c(=O)c(C(=O)c3ccc(F)cc3)cn(CC(=O)NC3CCCCC3)c2n1,inactive: 66%
3,CCOc1ccc(CNC(=O)c2cc3c(=O)n(Cc4cccs4)ccc3nc2C)cc1,inactive: 118%
4,COc1ccc(-c2nc3ccc(NS(=O)(=O)c4ccccc4)cc3o2)cc1,inactive: 49%
5,Cc1cc2cc(CN(CC3COCCO3)S(=O)(=O)c3ccc(F)cc3)c(=O)[nH]c2cc1C (stereo unspecified),inactive: 101%
6,COc1cccc(CNC(=O)c2cc3n(n2)CCCN(Cc2ccc(C)cc2)C3=O)c1OC,inactive: 70%
7,COc1ccc2c(Sc3ccccc3)c(C(=O)NCc3ccc(OC(C)C)cc3)[nH]c2c1,inactive: 125%
8,CCOc1ccc(-n2c(SCC(=O)NCc3ccco3)nc3c([nH]c4ccccc43)c2=O)cc1,active: 10%
9,Cc1cccc(-c2nnc3n(CCc4ccccc4)c(=O)c4ccccc4n23)c1,inactive: 56%
10,Cc1ccc(C)c(NC(=O)N2CCN(C)c3ncccc32)c1,inactive: 72%
11,Cc1ccc(Cn2ccnc2SCC(=O)Nc2ccc3c(c2)OCO3)cc1,inactive: 101%
12,Cc1ccc(NC(=O)c2sc(-n3nc(C)c(Cc4ccc(Cl)cc4)c3C)nc2C)cc1,inactive: 77%
13,Cc1ccc(-n2c3nc(=O)[nH]c(=O)c-3cc3c(Cl)cccc32)cc1,inactive: 95%
14,COc1ccc(Cl)cc1NC(=O)Cn1c(=O)n(Cc2ccco2)c(=O)c2ccc(C(=O)NC3CCCC3)cc21,inactive: 87%
15,CCOc1ccc(CNC(=O)c2ccc(-c3nc(CSc4ccc(C)cc4)c(C)o3)cc2)cc1,inactive: 63%
16,CCN(Cc1ccccc1)C(=O)Cn1c(=O)n(-c2ccc(OC)cc2OC)c(=O)c2c(C)c(C)sc21,inactive: 90%
17,CCOc1ccc(NC(=O)c2c(NC(=O)Cc3ccccc3)sc3c2CCCC3)cc1,inactive: 69%
18,Cc1ccc(CN2CCSc3ccc(C(=O)NCCc4ccccc4)cc32)cc1,inactive: 96%
19,COc1ccc(Cl)cc1NC(=O)C1CCN(c2nnc(C)c3c(C)n(-c4ccccc4)nc23)CC1,inactive: 66%

row,SMILES,survival
1,Cc1c(CC(=O)N2CCCCC2)c(=O)oc2c(C)c3occ(C(C)(C)C)c3cc12,inactive: 81%
2,CCCCOc1ccc(C(C)NC(=O)c2cccc(Nc3nc4ccccc4n4nnnc34)c2)cc1 (stereo unspecified),inactive: 76%
3,CCOc1ccc(CCNC(=O)CSc2n[nH]c(-c3ccccc3)n2)cc1OCC,inactive: 68%
4,CN(C)C=NC(=O)c1cc2c(n(-c3ccccc3)c1=O)CC(C)(C)CC2=O,inactive: 77%
5,O=c1n(Cc2cccc(F)c2)c2ccccc2c2nc(-c3ccccc3)nn12,inactive: 34%
6,COc1cccc(CSc2nc3n(n2)C(c2cccc(F)c2)C(C(=O)Nc2ccccc2C)=C(C)N3)c1 (stereo unspecified),inactive: 88%
7,Cc1ccc(O)c(NC(=O)c2cc(-c3ccc4c(c3)OCO4)on2)c1,inactive: 88%
8,Cc1cccc(N2CCN(C(=O)c3ccc(CS(=O)c4cccc(Cl)c4)o3)CC2)c1C (stereo unspecified),inactive: 63%
9,COc1ccc(CN(C(=O)Nc2cccc(Cl)c2)c2ccccn2)cc1OC,inactive: 81%
10,Cc1ccc(-c2[nH]c3ccccc3c2SCCNC(=O)c2ccc(S(=O)(=O)N(C)C)cc2)cc1,inactive: 127%
11,COCCNC(=O)CCC(=O)N1Cc2cccc(OC)c2Oc2ncccc21,inactive: 113%
12,CCSc1nnc2c(n1)OC(c1ccc(C)cc1)N(C(C)=O)c1ccccc1-2 (stereo unspecified),inactive: 71%
13,COc1ccc(CNC(=O)CCCN2C(=O)CSc3c2c(C)nn3-c2ccccc2)c(OC)c1,inactive: 71%
14,COc1ccc(Cl)cc1NC(=O)CCS(=O)(=O)c1cccc2nonc12,inactive: 120%
15,Cc1ccc(NC(=O)C(=O)NCC(c2cccnc2)N2CCOCC2)cc1Cl (stereo unspecified),inactive: 81%
16,CCOC(=O)C1=NNC2C(=O)N(CC)C(=O)C12 (stereo unspecified),inactive: 109%
17,CC(=O)NC1(c2ccccc2)CCN(C(=O)c2cccs2)CC1,inactive: 105%
18,CCc1ccc(NC(=O)Cn2ccn(Cc3ccccc3OC)c(=O)c2=O)cc1,inactive: 87%
19,COc1cccc(-c2ccc3c(N)c(C(=O)c4ccc(Br)cc4)sc3n2)c1,inactive: 38%

row,SMILES,survival
1,O=C(Cc1ccc(Cl)cc1)Nc1nnc2n1CCS2,inactive: 73%
2,COc1ccc(C)cc1NC(=O)CCc1c(C)nn(-c2ccc(N3CCOCC3)nn2)c1C,inactive: 74%
3,Cc1ccc(NC(=O)c2c(C)oc3ncnc(N4CCCCC4)c23)cc1Cl,inactive: 80%
4,Cc1ccc(-n2nc(C)c3c(C)cc(=O)n(CC(=O)N4CCCc5ccccc54)c32)cc1,inactive: 74%
5,CCn1cc(S(=O)(=O)c2cccc(Cl)c2)c(=O)c2cc(F)c(N3CCC(C)CC3)cc21,inactive: 57%
6,O=C(COCc1cc(-c2cccs2)on1)NCc1ccc(Cl)cc1,inactive: 75%
7,Cc1cc(C)c(NS(=O)(=O)c2ccc(-c3cnc(C4CC4)o3)cc2)c(C)c1,inactive: 95%
8,COc1ccc(NC(=O)C(=O)NCC2(c3ccc(OC)c(OC)c3)CCCC2)cc1,inactive: 93%
9,COc1cccc(CNC(=O)Cc2csc3ccccc23)c1OC,inactive: 82%
10,CCCOC(=O)c1c(NC(=O)C2c3ccccc3Oc3ccccc32)sc2c1CCCC2,inactive: 73%
11,COc1ccc(NC(=O)CCCSc2nc(-c3ccco3)cc(C(F)(F)F)n2)c(OC)c1,inactive: 38%
12,COc1cccc(OCc2nc3ccccc3n2Cc2ccccc2C)c1,inactive: 87%
13,CCOc1ccc(N(CC)C(=O)C2CCN(S(=O)(=O)c3cccc4nonc34)CC2)cc1,inactive: 82%
14,COc1ccc(CCC(=O)NC2CC(=O)N(c3cccc(F)c3)C2)cc1 (stereo unspecified),inactive: 132%
15,N/C(=N/c1nc2ccccc2o1)NC(=O)C(Cc1ccccc1)N1C(=O)c2ccccc2C1=O (stereo unspecified),inactive: 132%
16,CN(CC(=O)O)C(=O)c1ccco1,inactive: 104%
17,CCC(=O)n1nc(-c2cccnc2)nc1NCc1ccc(F)cc1,inactive: 87%
18,N#CC(C#N)=C(C(C#N)=C1Nc2ccccc2N1)c1ccccc1F,inactive: 79%
